Target: Clostridium difficile toxin A (TcdA) (Clostridium difficile)
Experiment: cell-based or functional assay

B1: VNA2-Tcd (VHH heterotetramer AH3/5D/E3/AA6) (other)
chain: [skipping about 100 residues]GSGSGHMHHHHHHSSGLVPRGSGMKETAAAKFERQHMDSPDLGTDDDDKAMAISDPNSGAPVPYPDPLEPRAAAQVQLVESGGGLVQPGGSLRLSCAASGFTLDYSSIGWFRQAPGKEREGVSCISSSGDSTKYADSVKGRFTTSRDNAKNTVYLQMNSLKPDDTAVYYCAAFRATMCGVFPLSPYGKDDWGKGTLVTVSSEPKTPKPQPTSAIAGGGGSGGGGSGGGGSAAAQLQLVESGGGLVQPGGSLRLSCEASGFTLDYYGIGWFRQPPGKEREAVSYISASARTILYADSVKGRFTISRDNAKNAVYLQMNSLKREDTAVYYCARRRFSASSVNRWLADDYDVWGRGTQVAVSSEPKTPKPQTSALVGGGGSGGGGSGGGGSLQAMAAAQVQLVESGGGLVQTGGSLRLSCASSGSIAGFETVTWSRQAPGKSLQWVASMTKTNNEIYSDSVKGRFIISRDNAKNTVYLQMNSLKPEDTGVYFCKGPELRGQGIQVTVSSEPKTPKPQAIAGGGGSGGGGSGGGGSLQGQVQLVESGGGLVQPGGSLRLSCAASGFTFSDYVMTWVRQAPGKGPEWIATINTDGSTMRDDSTKGRFTISRDNAKNTLYLQMTSLKPEDTALYYCARGRVISASAIRGAVRGPGTQVTVSSEPKTPKPQPARQGAPVPYPDPLEPRGGGSDICLPRWGCLWED
IC50, cell-based neutralization (CT26 cell rounding): < 1 nM

From patent publication US20190225675A1 (TUFTS UNIVERSITY, published 2019)
